Patent EP4763867A1 (Shanghai Mabgen Biotech Ltd., dated 2026)

Assays:
[1] = target: T1, human IL-2Rβ/γ receptor heterodimer protein (Acrosystem, ILG-H5283) (human, UniProt P14784 27-239; P31785 23-262, limits assumed); assay: SPR (Biacore 8K), fusion protein captured by anti-human IgG (Fc), IL-2Rβ/γ heterodimer as analyte
T1 construct: SPR analyte
T1 sequence (looked up) 1: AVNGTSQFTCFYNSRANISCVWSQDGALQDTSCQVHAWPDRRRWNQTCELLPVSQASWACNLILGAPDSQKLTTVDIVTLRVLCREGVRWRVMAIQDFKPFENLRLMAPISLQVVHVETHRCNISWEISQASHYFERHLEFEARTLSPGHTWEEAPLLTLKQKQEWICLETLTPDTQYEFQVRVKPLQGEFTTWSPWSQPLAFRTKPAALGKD
T1 sequence (looked up) 2: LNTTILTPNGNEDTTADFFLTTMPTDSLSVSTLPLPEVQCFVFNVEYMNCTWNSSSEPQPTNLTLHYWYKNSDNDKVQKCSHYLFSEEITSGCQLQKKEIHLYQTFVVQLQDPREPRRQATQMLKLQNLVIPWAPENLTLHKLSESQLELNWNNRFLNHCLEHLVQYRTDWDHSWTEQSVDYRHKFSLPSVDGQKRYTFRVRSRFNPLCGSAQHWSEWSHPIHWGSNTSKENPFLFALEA

[2] = target: T1, human IL-2Rβ/γ receptor heterodimer …; assay: as above; remark: listed apart in the source
[3] = target: T2, Human PD-1 antigen protein (Sino Biological, 10377-H08H) (human, UniProt Q15116 part only); assay: SPR (Biacore 8K), fusion protein captured by anti-human IgG (Fc), PD-1 as analyte
T2 construct: also called human antigen protein

[4] = target: T3, human IL-2Rα receptor protein (Sino Biological, 10165-H08H) (human, UniProt P01589 22-213); assay: SPR (Biacore 8K), fusion protein captured by anti-human IgG (Fc), IL-2Rα as analyte
T3 construct: SPR analyte; also called CD25
T3 sequence (looked up): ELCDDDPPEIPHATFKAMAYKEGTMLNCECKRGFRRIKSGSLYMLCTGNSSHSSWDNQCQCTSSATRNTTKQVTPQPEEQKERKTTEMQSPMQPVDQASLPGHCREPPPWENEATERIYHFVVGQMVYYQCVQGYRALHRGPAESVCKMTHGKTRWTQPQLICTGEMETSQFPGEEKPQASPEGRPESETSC

T2 sequence (Q15116 25-167 limits assumed): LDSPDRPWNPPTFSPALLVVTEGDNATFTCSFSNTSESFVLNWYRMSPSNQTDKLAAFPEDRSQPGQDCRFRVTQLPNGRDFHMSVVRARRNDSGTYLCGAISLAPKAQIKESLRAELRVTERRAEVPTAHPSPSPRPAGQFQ

Kd [1]: 3.38 nM | koff [1]: 0.000215 s⁻¹ | kon [1]: 63700 M⁻¹ s⁻¹ | fold lower avidity than A-PC [2]: ~13 times | Kd [3]: 17.6 nM | koff [3]: 0.00175 s⁻¹ | kon [3]: 99800 M⁻¹ s⁻¹ | binding result [4]: no binding
B1: A-N88D (Fc fusion)
chain 1: EVQLVESGGGLVQPGGSLRLSCAASGLTFSDYSMSWYRQAPGKGRELVAIISGSGVITHYVDSVKGRFTISRDNAKNTLYLQMRSLRAEDTAVYYCRAVSDWEDYWGQGTQVTVSS[human IgG1 Fc with changes not written out]GGGGSGGGGSGGGGSAPASSSTKKTQLQLEHLLLDLQMILQGISNYKNPKLTRMLTAKFYMPKKATELKHLQCLEEELKPLEEVLQGAQSKNFHLRPRDLISDINVIVLELKGSETTFMCEYADETATIVEFLNRWITFAQSIISTLT
chain 2: EVQLVESGGGLVQPGGSLRLSCAASGLTFSDYSMSWYRQAPGKGRELVAIISGSGVITHYVDSVKGRFTISRDNAKNTLYLQMRSLRAEDTAVYYCRAVSDWEDYWGQGTQVTVSSEPKSSDKTHTCPPCPAPEAAGGPSVFLFPPKPKDTLMISRTPEVTCVVVDVSHEDPEVKFNWYVDGVEVHNAKTKPREEQYNSTYRVVSVLTVLHQDWLNGKEYKCKVSNKALPAPIEKTISKAKGQPREPQVCTLPPSREEMTKNQVSLSCAVKGFYPSDIAVEWESNGQPENNYKTTPPVLDSDGSFFLVSKLTVDKSRWQQGNVFSCSVMHEALHNHYTQKSLSLSPG
notes: also called PD-1-IL-2v (N88D); PD-1-IL2v
